Drawing on PMC12450465, “Oligomerization and exocyst coupling underlie Spa2-mediated focusing of polarized growth in fission yeast” (Journal of Cell Science, 2025), this text covers binding for five molecules.

Test [1] addresses Pos1, last 69 amino acids, yeast two-hybrid construct (S. pombe) (UniProt O13743). The experiment in a line: two-hybrid; directed yeast two-hybrid, S. cerevisiae strain PJ69-4A, plasmids pGAD424 and pGBT9, growth selection on media lacking histidine.
The target of test [2] is Spa2, yeast two-hybrid construct (S. pombe) (UniProt O42869). The description is as above.
The target of test [3] is Spa2 (Spa2–FLAG and Spa2–GFP, two differently tagged copies in a spa2–FLAG spa2–GFP diploid strain) (S. pombe) (UniProt O42869). The experiment in a line: co-IP; co-immunoprecipitation of Spa2–FLAG and Spa2–GFP from a spa2–FLAG spa2–GFP diploid strain, also from a diploid strain lacking Pos1; NP40 buffer, native conditions.
Test [4] has as its target Pos1, yeast two-hybrid construct (S. pombe) (UniProt O13743). Nature of the test: two-hybrid; directed yeast two-hybrid, S. cerevisiae strain PJ69-4A, plasmids pGAD424 and pGBT9, growth selection on media lacking histidine.
Test [5] has as its target T1, Spa2(305–360), yeast two-hybrid construct (S. pombe) (UniProt O42869).
T1 sequence: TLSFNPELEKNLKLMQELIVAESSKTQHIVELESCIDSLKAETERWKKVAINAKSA
Described as above.

The target of test [6] is T2, Spa2(1–360)–GFP (S. pombe) (UniProt O42869).
T2 sequence: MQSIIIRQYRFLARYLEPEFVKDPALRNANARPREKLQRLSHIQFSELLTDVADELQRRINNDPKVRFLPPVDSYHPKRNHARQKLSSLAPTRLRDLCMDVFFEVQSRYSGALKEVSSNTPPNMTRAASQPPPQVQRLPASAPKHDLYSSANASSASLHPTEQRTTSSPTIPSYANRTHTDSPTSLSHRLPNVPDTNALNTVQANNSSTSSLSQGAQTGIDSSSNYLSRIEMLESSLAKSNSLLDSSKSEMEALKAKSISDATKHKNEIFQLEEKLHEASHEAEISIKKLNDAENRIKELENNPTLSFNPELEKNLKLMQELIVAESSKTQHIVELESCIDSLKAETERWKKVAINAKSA
Nature of the test: co-IP; anti-GFP immunoprecipitation from S. pombe whole-cell lysates in NP40 buffer, native conditions; anti-FLAG immunoblot. Background: In western blotting, separated proteins are transferred to a membrane and probed.

Test [7] concerns the target T3, Spa2(1–305)–GFP (S. pombe) (UniProt O42869).
T3 sequence: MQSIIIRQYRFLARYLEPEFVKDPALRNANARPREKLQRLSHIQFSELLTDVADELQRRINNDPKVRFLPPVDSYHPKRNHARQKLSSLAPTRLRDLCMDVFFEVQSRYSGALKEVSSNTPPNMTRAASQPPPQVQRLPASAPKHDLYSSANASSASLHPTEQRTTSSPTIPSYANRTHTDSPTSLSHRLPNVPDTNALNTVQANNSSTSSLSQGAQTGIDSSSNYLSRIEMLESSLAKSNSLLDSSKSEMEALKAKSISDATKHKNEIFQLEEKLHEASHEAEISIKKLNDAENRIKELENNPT
The test is described as above.

In test [8] the target is T4, Spa2–GFP (full length, from the endogenous spa2 locus) (S. pombe) (UniProt O42869).
T4 sequence: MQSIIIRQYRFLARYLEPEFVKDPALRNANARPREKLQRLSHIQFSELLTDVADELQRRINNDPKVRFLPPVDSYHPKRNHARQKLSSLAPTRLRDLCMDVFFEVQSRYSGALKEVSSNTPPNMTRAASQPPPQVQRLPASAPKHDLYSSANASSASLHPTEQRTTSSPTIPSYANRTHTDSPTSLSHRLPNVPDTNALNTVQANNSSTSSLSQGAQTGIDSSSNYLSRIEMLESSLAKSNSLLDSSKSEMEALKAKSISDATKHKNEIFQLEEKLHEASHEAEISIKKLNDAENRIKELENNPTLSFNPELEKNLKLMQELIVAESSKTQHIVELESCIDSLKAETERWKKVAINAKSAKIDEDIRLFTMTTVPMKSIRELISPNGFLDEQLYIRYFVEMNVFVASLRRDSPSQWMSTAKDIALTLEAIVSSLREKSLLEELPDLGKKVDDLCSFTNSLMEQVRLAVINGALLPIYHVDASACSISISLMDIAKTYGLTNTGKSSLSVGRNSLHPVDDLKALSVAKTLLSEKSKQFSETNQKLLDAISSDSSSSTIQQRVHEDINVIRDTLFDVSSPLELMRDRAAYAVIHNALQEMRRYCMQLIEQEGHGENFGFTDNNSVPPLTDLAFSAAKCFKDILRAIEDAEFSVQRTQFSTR
The test is described as above.

No constants are given. Whether binding was seen depends on the method and setting. For some assays here: In cells and extracts the contact can be indirect. Some entries that bind do so weakly or less than the wild type. For some assays here: Tags and fused reporters may be left off the sequences shown.

B1: Pos1, last 69 amino acids, yeast two-hybrid construct (domain or fragment, UniProt O13743 201-269)
chain: PMGRNVDTETLSFLLIDWQRLCAEQNTFLRDITNNMSSSVPQDVLSQLRQFFFRSELLSDKLSNLCSES
With B1, in test [1], the binding result is “binds”.

B2: Spa2, yeast two-hybrid construct (protein, UniProt O42869 1-659)
chain: MQSIIIRQYRFLARYLEPEFVKDPALRNANARPREKLQRLSHIQFSELLTDVADELQRRINNDPKVRFLPPVDSYHPKRNHARQKLSSLAPTRLRDLCMDVFFEVQSRYSGALKEVSSNTPPNMTRAASQPPPQVQRLPASAPKHDLYSSANASSASLHPTEQRTTSSPTIPSYANRTHTDSPTSLSHRLPNVPDTNALNTVQANNSSTSSLSQGAQTGIDSSSNYLSRIEMLESSLAKSNSLLDSSKSEMEALKAKSISDATKHKNEIFQLEEKLHEASHEAEISIKKLNDAENRIKELENNPTLSFNPELEKNLKLMQELIVAESSKTQHIVELESCIDSLKAETERWKKVAINAKSAKIDEDIRLFTMTTVPMKSIRELISPNGFLDEQLYIRYFVEMNVFVASLRRDSPSQWMSTAKDIALTLEAIVSSLREKSLLEELPDLGKKVDDLCSFTNSLMEQVRLAVINGALLPIYHVDASACSISISLMDIAKTYGLTNTGKSSLSVGRNSLHPVDDLKALSVAKTLLSEKSKQFSETNQKLLDAISSDSSSSTIQQRVHEDINVIRDTLFDVSSPLELMRDRAAYAVIHNALQEMRRYCMQLIEQEGHGENFGFTDNNSVPPLTDLAFSAAKCFKDILRAIEDAEFSVQRTQFSTR
As for B2, the binding entry in test [2] is “binds”.

B3: Spa2 (Spa2–FLAG and Spa2–GFP, two differently tagged copies in a spa2–FLAG spa2–GFP diploid strain) (protein, UniProt O42869 1-659)
chain: MQSIIIRQYRFLARYLEPEFVKDPALRNANARPREKLQRLSHIQFSELLTDVADELQRRINNDPKVRFLPPVDSYHPKRNHARQKLSSLAPTRLRDLCMDVFFEVQSRYSGALKEVSSNTPPNMTRAASQPPPQVQRLPASAPKHDLYSSANASSASLHPTEQRTTSSPTIPSYANRTHTDSPTSLSHRLPNVPDTNALNTVQANNSSTSSLSQGAQTGIDSSSNYLSRIEMLESSLAKSNSLLDSSKSEMEALKAKSISDATKHKNEIFQLEEKLHEASHEAEISIKKLNDAENRIKELENNPTLSFNPELEKNLKLMQELIVAESSKTQHIVELESCIDSLKAETERWKKVAINAKSAKIDEDIRLFTMTTVPMKSIRELISPNGFLDEQLYIRYFVEMNVFVASLRRDSPSQWMSTAKDIALTLEAIVSSLREKSLLEELPDLGKKVDDLCSFTNSLMEQVRLAVINGALLPIYHVDASACSISISLMDIAKTYGLTNTGKSSLSVGRNSLHPVDDLKALSVAKTLLSEKSKQFSETNQKLLDAISSDSSSSTIQQRVHEDINVIRDTLFDVSSPLELMRDRAAYAVIHNALQEMRRYCMQLIEQEGHGENFGFTDNNSVPPLTDLAFSAAKCFKDILRAIEDAEFSVQRTQFSTR
As for B3, in test [3], the binding result is given as “binds”.

B4: Pos1, yeast two-hybrid construct (protein, UniProt O13743 1-269)
chain: MAFSPANSFLINKSICESKEVEPLEANLFGKLHNKLLICKAKKENLEKKLAYQMMYSKLLKSLPKLSSLEENKLTKLKAPIEDMENTKKELEEIRKQSTETELRYLKSLSNTLSFGTLSLSNEINKVGPSASFMLKEVHDSVQVLEQRLEKMGLIEKPSESSESSIYSILASLKHTNDSLQKKELSPHEIAESPSSHSTSPMGRNVDTETLSFLLIDWQRLCAEQNTFLRDITNNMSSSVPQDVLSQLRQFFFRSELLSDKLSNLCSES
On to B4, for which the binding result in test [4] and in test [5] was “binds” in each case.

B5: FLAG-tagged Pos1 (protein, UniProt O13743 1-269)
chain: MAFSPANSFLINKSICESKEVEPLEANLFGKLHNKLLICKAKKENLEKKLAYQMMYSKLLKSLPKLSSLEENKLTKLKAPIEDMENTKKELEEIRKQSTETELRYLKSLSNTLSFGTLSLSNEINKVGPSASFMLKEVHDSVQVLEQRLEKMGLIEKPSESSESSIYSILASLKHTNDSLQKKELSPHEIAESPSSHSTSPMGRNVDTETLSFLLIDWQRLCAEQNTFLRDITNNMSSSVPQDVLSQLRQFFFRSELLSDKLSNLCSES
B5: the binding result in test [6] was “binds”; in test [7] it was “no binding”; in test [8], “binds”.
